Source: PubChem BioAssay AID1476 (National Center for Advancing Translational Sciences (NCATS), 2009)
Hit rate of the full screen: of about 200,000 compounds, about 4,500 (2.2%) were called active. The inconclusive results got no clear call from the source; some entries with a clear call stand among them for comparison. The call rests on the fitted dose curve; in most records, active means well fitted inhibition curve with a large enough effect; inconclusive means small, poorly fitted or top-dose-only effect, or effect the other way; inactive means flat fitted curve, though single readings scatter. Potencies of inconclusive entries are doubtful fits and often do not repeat.

What follows are compounds tested against Cruzipain (Trypanosoma cruzi) (UniProt P25779) (assay: qHTS Assay for Promiscuous and Specific Inhibitors of Cruzain (without detergent)). Settings: purified cruzain, Z-FR-AMC fluorescence, no detergent.
Chain of UniProt P25779 (P25779 whole entry, looked up): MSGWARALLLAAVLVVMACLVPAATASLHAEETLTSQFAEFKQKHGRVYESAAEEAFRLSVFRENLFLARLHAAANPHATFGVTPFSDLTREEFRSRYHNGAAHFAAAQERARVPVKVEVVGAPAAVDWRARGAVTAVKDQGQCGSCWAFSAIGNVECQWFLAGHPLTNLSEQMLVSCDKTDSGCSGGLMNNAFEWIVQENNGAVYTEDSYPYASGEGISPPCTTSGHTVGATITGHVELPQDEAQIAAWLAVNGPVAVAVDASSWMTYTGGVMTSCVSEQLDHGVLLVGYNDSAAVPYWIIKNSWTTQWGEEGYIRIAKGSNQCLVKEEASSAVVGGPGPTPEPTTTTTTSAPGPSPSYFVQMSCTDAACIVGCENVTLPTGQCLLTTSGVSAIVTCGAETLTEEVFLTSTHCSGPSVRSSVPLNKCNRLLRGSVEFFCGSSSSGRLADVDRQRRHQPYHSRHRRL
Procedure, shortened: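 Purified cruzain at 1.5 nM, pre-incubated 15 min with compound at room temperature in 100 mM sodium acetate pH 5.5, 5 mM DTT, 0.00005% Triton X-100. Reaction started with 2 uM Z-FR-AMC; AMC fluorescence increase over 60 s gives rate.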
Further: nearly all actives have a fitted effect of over 40% in size.
Potency means the concentration at half of the fitted maximal effect; tags describe the fitted curve by direction and shape.
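Wherever max response, negative = inhibition is given: plate controls were enzyme without inhibitor for no effect and buffer without enzyme for full effect.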

SMILES | max response, negative = inhibition | Potency
COC(=O)c1n[nH]n(-c2ccccc2)c1=O | inactive: -9.7% | 
C=CCCC(=O)Nc1nc(C)c(-c2csc(Nc3ccc(Cl)cc3Cl)n2)s1 |  | inconclusive: 31.6 µM [inhibitor, single point]
O=C(NCCc1ccc(Cl)cc1)c1ccc(CS(=O)Cc2cccc(Cl)c2)o1 (stereo not drawn) |  | inconclusive: 39.8 µM [activator, single point]
COC(=O)c1c(C)sc(-c2c(-c3ccc4c(c3)OCCO4)[nH]c3c2c(=O)n(C)c(=O)n3C)c1O |  | inconclusive: 6.31 µM [activator, single point]
O=C(Nc1cccc(-c2cc3ccccc3oc2=O)c1)c1ccc(Br)o1 |  | inconclusive: 31.6 µM [inhibitor, single point]
Cc1ccc(OCCn2cc(C(=S)N3CCCC3)c3ccccc32)cc1C |  | inconclusive: 39.8 µM [inhibitor, single point]
CCOc1ccccc1NC(=O)c1c(NC(=O)c2ccccc2C)sc2c1CCC(C)C2 (stereo not drawn) | inactive: 1.06% | 
O=c1ccc2cc(OC3OC(CO)C(O)C(O)C3O)c(O)cc2o1 (stereo not drawn) |  | active: 12.6 µM
Cc1nn(C)c(C)c1S(=O)(=O)N1CCCC(C(=O)N2CCN(c3ccc(Cl)cc3)CC2)C1 (stereo not drawn) |  | inconclusive: 12.6 µM [activator, partial curve]
CCCCN1CCc2c([nH]c3ccc(C)cc23)C1=O |  | inconclusive: 39.8 µM [inhibitor, single point]
O=C1/C(=C\c2ccco2)CCC/C1=C\c1ccco1 |  | inconclusive: 25.1 µM [inhibitor, single point]
COc1ccc(CNc2ncncc2-c2ccccc2Cl)c(OC)c1 | inactive: 5.84% | 
C/C(=N\OC(=O)NC(C)C)c1sc(-c2ccc(Cl)cc2)nc1C |  | inconclusive: 39.8 µM [activator, single point]
COc1ccc2nc(NC(=O)CN3CCOCC3)sc2c1 | inactive: 2.11% | 
CC(C)c1ccc(/C=C/C(=O)NC2=NCCS2)cc1 |  | inconclusive: 39.8 µM [inhibitor, single point]
Cn1ccc2cc(S(=O)(=O)N3CCCN(C(=O)Nc4ccccc4Br)CC3)ccc21 |  | inconclusive: 39.8 µM [inhibitor, single point]
C[C@@H]1C(c2ccccc2)=NN(c2ccc(Br)cc2)[C@H]1C(=O)N1CCOC1=O |  | inconclusive: 44.7 µM [inhibitor, single point]
CC1(C)Cc2ccccc2-c2nc(NCCO)n(-c3ccccc3)c(=O)c21 |  | inconclusive: 31.6 µM [activator, partial curve]
O=C(NC(=S)Nc1cccc(Cl)c1N1CCCC1)c1ccc(-c2cccc([N+](=O)[O-])c2)o1 |  | active: 3.16 µM
N#C/C(=C/c1cn(Cc2ccc(F)cc2)c2ccccc12)C(=O)Nc1cccc(Cl)c1 |  | active: 7.94 µM
CCn1c2ccccc2c2nnc(SCCN3CCCCC3)nc21 | inactive: -0.97% | 

SMILES | max response, negative = inhibition | Potency
c1ccc(-c2ccc(-c3ccc(C4=NCCN4)cc3)o2)cc1 | inactive: -1.77% | 
COc1cc(-c2noc(-c3ccc(NCc4cccnc4)c([N+](=O)[O-])c3)n2)cc(OC)c1OC |  | inconclusive: 39.8 µM [inhibitor, single point]
CO[C@H]1[C@@H](OC(N)=O)[C@H](O)[C@@H](Oc2ccc3c(O)c(NC(=O)c4ccc(O)c(CC=C(C)C)c4)c(=O)oc3c2C)OC1(C)C |  | inconclusive: 15.8 µM [activator, single point]
COc1ccc(/C=C/c2nnc(NC(=O)COc3cccc(C)c3)s2)cc1 |  | active: 12.6 µM
N#CCCN1CCN(C(=S)c2ccc(-c3cc(Cl)ccc3Cl)o2)CC1 |  | inconclusive: 39.8 µM [activator, single point]
O=C(Nc1cccc(Cl)c1Cl)c1ccc2c(c1)N(Cc1cccc(Cl)c1)C(=O)c1ccccc1S2(=O)=O |  | active: 3.98 µM
COc1ccc(C2Nc3ccccc3C(=O)N2Cc2ccco2)cc1CN1C(=O)c2ccccc2C1=O (stereo not drawn) |  | inconclusive: 25.1 µM [inhibitor, single point]
CC(=O)Nc1ccc(/C=N/Nc2nc3ccccc3[nH]2)cc1 |  | inconclusive: 31.6 µM [inhibitor, single point]
COc1ccc2oc(=O)c(C(=O)NCCc3c(C)[nH]c4c(Cl)cccc34)cc2c1 | inactive: -4.58% | 
COc1cc2ccccc2cc1C(=O)Nc1cccc(-c2nc3cc(C)c(C)cc3o2)c1C | inactive: -6.64% | 
CC(=O)c1ccc(NC(=O)c2nc(-c3ccccc3)n(-c3ccccc3)n2)cc1 |  | inconclusive: 39.8 µM [inhibitor, single point]
COc1cc(OC)c(NS(=O)(=O)c2ccc(Cl)c(C(=O)OC(C)C(=O)N3CCCC3)c2)cc1Cl (stereo not drawn) |  | inconclusive: 39.8 µM [activator, single point]
C/C=C(\C)C(=O)OC1CC(OC(C)=O)[C@@]2(C(=O)OC)COC3C2[C@@]12CO[C@](O)(C(=O)OC)C2[C@](C)(C12OC1(C)C1CC2OC2OC=C[C@]21O)C3O (stereo partly drawn) |  | inconclusive: 31.6 µM [activator, single point]
Cc1cccc(Oc2nc3ccccn3c(=O)c2/C=C(\C#N)C(=O)NC2CCS(=O)(=O)C2)c1 (stereo not drawn) |  | inconclusive: 31.6 µM [activator, single point]
COc1cccc(NS(=O)(=O)c2ccc3c(c2)N(C)C(=O)CC(=O)N3C)c1 |  | inconclusive: 39.8 µM [activator, single point]
COc1cc(/C=C2/N=C(C3CCCCC3)OC2=O)cc(OC)c1OC |  | active: 2.51 µM
Cc1cc(S(=O)(=O)Nc2ccc(C(=O)O)cc2)c(C)c(S(=O)(=O)c2ccc(Cl)cc2)c1 | inactive: 3.26% | 
Cc1ccc(S(=O)(=O)NCc2nc3cccnc3n2Cc2ccccc2Cl)c(C)c1 | inactive: -5.47% | 
Cc1nn(-c2ccccc2)c(C)c1/C=N/NC(=O)c1cc(-c2ccc(Cl)s2)[nH]n1 |  | inconclusive: 20 µM [activator, partial curve]
Cc1ccccc1C(=O)Nc1ccccc1-c1nnn(CC(=O)Nc2ccc3c(c2)OCCO3)n1 |  | inconclusive: 31.6 µM [inhibitor, single point]
COc1ccc(/C=C(/NC(=O)c2ccc(OC)c(OC)c2)C(=O)NCCc2c[nH]c3ccccc23)cc1 |  | inconclusive: 25.1 µM [activator, single point]

SMILES | max response, negative = inhibition | Potency
COc1ccc(C(=O)Nc2ccc(S(=O)(=O)N(Cc3ccccc3)c3ccccc3)cc2)cc1 |  | inconclusive: 31.6 µM [inhibitor, single point]
O=c1cc(CN2CCOCC2)c2c(ccc3ccccc32)o1 | inactive: -0.49% | 
Cc1cccc(NC(=O)CSc2nnc(CNC(=O)c3ccc(S(=O)(=O)N(C)C)cc3)n2-c2ccccc2)c1 |  | inconclusive: 31.6 µM [activator, single point]
Fc1ccc(Nc2nc(-c3ccoc3)nc3ccccc23)cc1 |  | active: 25.1 µM
COc1ccc(C(=O)c2sc3nc(-c4ccc(F)cc4)ccc3c2N)cc1 | inactive: 4.79% | 
O=c1c2ccccc2nc(SCc2nc(-c3ccccc3)no2)n1-c1ccc(F)cc1 |  | active: 25.1 µM
CCOc1ccc(CCNC(=O)COC(=O)/C=C/c2ccc(OCC#N)c(OC)c2)cc1OCC |  | inconclusive: 20 µM [activator, partial curve]
COc1ccc(N2C(=O)Cc3cc(OC)c(OC)cc3C2c2ccc(F)cc2)cc1 (stereo not drawn) |  | inconclusive: 39.8 µM [activator, single point]
COC(=O)c1cc([N+](=O)[O-])c(-n2ccnc2)c([N+](=O)[O-])c1 | inactive: 12.1% | 
CCOc1cc([C@H]2[C@@H]3CCCC[C@]3(O)CCN2CC(=O)NCc2ccco2)ccc1O | inactive: -9.19% | 
COc1ccc(S(=O)(=O)Nc2cc3c(C(=O)OC(C)C)c(C)oc3c3ccccc23)cc1 |  | inconclusive: 25.1 µM [inhibitor, single point]
COc1ccc(C2NC(=O)N(C)C3=C2C(=O)N(c2cccc(C(=O)O)c2)C3)cc1 (stereo not drawn) | inactive: -7.6% | 
CCOC(=O)N1CCN(C(=O)CN(C2CCCCC2)S(=O)(=O)c2ccc(Cl)cc2)CC1 |  | inconclusive: 31.6 µM [activator, single point]
Cc1ccc(NC(=O)C2CCN(S(=O)(=O)c3c(C)noc3/C=C/c3cccs3)CC2)cc1F |  | inconclusive: 39.8 µM [inhibitor, single point]
Cc1ccc(C(=O)N2CCN(c3cc4c(cc3[N+](=O)[O-])n(C)c(=O)n4C)CC2)cc1 |  | inconclusive: 31.6 µM [activator, single point]
COc1ccccc1-c1cc(C(=O)Nc2cc(OC)c(OC)c(OC)c2)no1 |  | inconclusive: 39.8 µM [activator, single point]
CCc1ccc(NC(=O)CCNS(=O)(=O)c2ccc3c(c2)oc(=O)n3C)cc1 | inactive: 15.9% | 
CCOC(=O)c1ccccc1NC(=O)CN1CCCN(Cc2cccc(Cl)c2)S1(=O)=O | inactive: -2.38% | 
CC(C)[C@]1(O)[C@@H](OC(=O)c2ccc[nH]2)[C@]2(O)[C@@]3(C)C[C@@]4(O)O[C@@]5([C@H](O)[C@@H](C)CC[C@]35O)[C@]2(O)[C@]41C | inactive: -3.46% | 
COc1ccccc1-c1cc(C(=O)N/N=C\c2cn(C)nc2C)c2ccccc2n1 |  | inconclusive: 31.6 µM [activator, partial curve]
CCOC(=O)CC(=O)CSc1nc(-c2ccc3c(c2)OCO3)cc(C(F)(F)F)c1C#N |  | inconclusive: 7.94 µM [inhibitor, partial curve]
